Results reported in the supplement of paper PMC8728848.
The list shows a part of the results.

Assays:
Test in all cases: glycan array binding signal (z-score within array); higher = stronger binding
Conditions in all cases: glycan notation: IUPAC condensed, linker removed
[1] = target: GlcNAc(a1-4)Gal(b1-4)GlcNAc(b1-3)Gal(b1-4)[Fuc(a1-3)]GlcNAc(b1-3)Gal(b1-4)[Fuc(a1-3)]GlcNAc
Summary of the method: (§1)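 Arrays were curated from the Consortium for Functional Glycomics database, 3228 in total, and kept only where the protein sequence was available. Binding is expressed as a within-array Z-score. This score was averaged across arrays of the same protein sequence at different concentrations or buffers and across linkers, and negative values can be read as non-binding.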

[2] = target: GlcNAc(a1-6)Gal(b1-4)GlcNAc
Summary of the method: as §1

[3] = target: GlcNAc(b1-2)Gal(b1-3)GalNAc
Summary of the method: as §1

[4] = target: GlcNAc(b1-2)Man(a1-3)[GlcNAc(b1-2)Man(a1-6)]Man(b1-4)GlcNAc(b1-4)GlcNAc
Summary of the method: as §1

[5] = target: GlcNAc(b1-2)Man(a1-3)[GlcNAc(b1-2)Man(a1-6)]Man(b1-4)GlcNAc(b1-4)[Fuc(a1-6)]GlcNAc
Summary of the method: as §1

GlcNAc(b1-3)Gal = target: GlcNAc(b1-3)Gal
Summary of the method: as §1

[6] = target: GlcNAc(b1-3)Gal(b1-3)GalNAc
Summary of the method: as §1

GlcNAc(b1-3)Gal(b1-4)Glc = target: GlcNAc(b1-3)Gal(b1-4)Glc
Summary of the method: as §1

[7] = target: GlcNAc(b1-3)Gal(b1-4)GlcNAc
Summary of the method: as §1

[8] = target: GlcNAc(b1-3)Gal(b1-4)GlcNAc(b1-3)Gal(b1-4)GlcNAc
Summary of the method: as §1

GlcNAc(b1-3)GalNAc = target: GlcNAc(b1-3)GalNAc
Summary of the method: as §1

GlcNAc(b1-3)Man = target: GlcNAc(b1-3)Man
Summary of the method: as §1

[9] = target: GlcNAc(b1-3)[GlcNAc(b1-4)][GlcNAc(b1-6)]GlcNAc
Summary of the method: as §1

[10] = target: GlcNAc(b1-3)[GlcNAc(b1-6)]Gal(b1-4)GlcNAc
Summary of the method: as §1

[11] = target: GlcNAc(b1-3)[GlcNAc(b1-6)]GalNAc
Summary of the method: as §1

[12] = target: GlcNAc(b1-4)Gal(b1-4)GlcNAc
Summary of the method: as §1

GlcNAc(b1-4)GlcNAc = target: GlcNAc(b1-4)GlcNAc
Summary of the method: as §1

[13] = target: GlcNAc(b1-4)GlcNAc(b1-4)GlcNAc
Summary of the method: as §1

[14] = target: GlcNAc(b1-4)GlcNAc(b1-4)GlcNAc(b1-4)GlcNAc(b1-4)GlcNAc
Summary of the method: as §1

[15] = target: GlcNAc(b1-4)GlcNAc(b1-4)GlcNAc(b1-4)GlcNAc(b1-4)GlcNAc(b1-4)GlcNAc
Summary of the method: as §1

[16] = target: GlcNAc(b1-4)[GlcNAc(b1-6)]GalNAc
Summary of the method: as §1

[17] = target: GlcNAc(b1-6)Gal(b1-4)GlcNAc
Summary of the method: as §1

GlcNAc(b1-6)GalNAc = target: GlcNAc(b1-6)GalNAc
Summary of the method: as §1

GlcNAc3Prop(b1-4)GlcNAc = target: GlcNAc3Prop(b1-4)GlcNAc
Summary of the method: as §1

[18] = target: GlcNAc6S(b1-3)Gal(b1-4)GlcNAc
Summary of the method: as §1

Kdn(a2-3)Gal(b1-3)GalNAc = target: Kdn(a2-3)Gal(b1-3)GalNAc
Summary of the method: as §1

Kdn(a2-3)Gal(b1-3)GlcNAc = target: Kdn(a2-3)Gal(b1-3)GlcNAc
Summary of the method: as §1

Kdn(a2-3)Gal(b1-4)Glc = target: Kdn(a2-3)Gal(b1-4)Glc
Summary of the method: as §1

Kdn(a2-3)Gal(b1-4)GlcNAc = target: Kdn(a2-3)Gal(b1-4)GlcNAc
Summary of the method: as §1

[19] = target: Kdn(a2-3)Gal(b1-4)[Fuc(a1-3)]GlcNAc
Summary of the method: as §1

Kdn(a2-6)Gal(b1-4)GlcNAc = target: Kdn(a2-6)Gal(b1-4)GlcNAc
Summary of the method: as §1

[20] = target: Man(a1-2)Man(a1-2)Man(a1-3)Man
Summary of the method: as §1

[21] = target: Man(a1-2)Man(a1-2)Man(a1-6)[Man(a1-3)]Man
Summary of the method: as §1

Man(a1-2)Man(a1-3)Man = target: Man(a1-2)Man(a1-3)Man
Summary of the method: as §1

[22] = target: Man(a1-2)Man(a1-3)[Man(a1-2)Man(a1-6)]Man
Summary of the method: as §1

[23] = target: Man(a1-2)Man(a1-3)[Man(a1-2)Man(a1-6)]Man(a1-6)[Man(a1-2)Man(a1-2)Man(a1-3)]Man
Summary of the method: as §1

[24] = target: Man(a1-2)Man(a1-3)[Man(a1-2)Man(a1-6)]Man(a1-6)[Man(a1-2)Man(a1-2)Man(a1-3)]Man(b1-4)GlcNAc(b1-4)GlcNAc
Summary of the method: as §1

[25] = target: Man(a1-2)Man(a1-3)[Man(a1-6)]Man(a1-6)[Man(a1-2)Man(a1-3)]Man(b1-4)GlcNAc(b1-4)GlcNAc
Summary of the method: as §1

[26] = target: Man(a1-2)Man(a1-6)[Man(a1-3)]Man(a1-6)[Man(a1-2)Man(a1-2)Man(a1-3)]Man
Summary of the method: as §1

[27] = target: Man(a1-2)Man(a1-6)[Man(a1-3)]Man(a1-6)[Man(a1-2)Man(a1-2)Man(a1-3)]Man(b1-4)GlcNAc(b1-4)GlcNAc
Summary of the method: as §1

Man(a1-3)[Man(a1-6)]Man = target: Man(a1-3)[Man(a1-6)]Man
Summary of the method: as §1

[28] = target: Man(a1-3)[Man(a1-6)]Man(a1-6)[Man(a1-2)Man(a1-3)]Man(b1-4)GlcNAc(b1-4)GlcNAc
Summary of the method: as §1

[29] = target: Man(a1-3)[Man(a1-6)]Man(a1-6)[Man(a1-3)]Man
Summary of the method: as §1

[30] = target: Man(a1-3)[Man(a1-6)]Man(a1-6)[Man(a1-3)]Man(b1-4)GlcNAc(b1-4)GlcNAc
Summary of the method: as §1

B1: CCL2 (Coprinopsis cinerea), B3GA02 (protein)
chain: MDSPAVTLSAGNYIIYNRVLSPRGEKLALTYPGRQRTPVTVSPLDGSSEQAWILRSYDSNSNTWTISPVGSPNSQIGWGAGNVPVVLPPNNYVWTLTLTSGGYNIQDGKRTVSWSLNNATAGEEVSIGADATFSGRWVIEKV
Question: How did the “glycan array binding signal (z-score)” value [1] turn out when B1 was run?
Answer: 2.32

Question: What about the “glycan array binding signal (z-score)” value [2] of the same binder?
Answer: -0.285

Question: And the “glycan array binding signal (z-score)” value [3]?
Answer: -0.277

Question: What about the “glycan array binding signal (z-score)” value [4] of the same binder?
Answer: -0.257

Question: And the “glycan array binding signal (z-score)” value [5]?
Answer: -0.26

Question: What about the “glycan array binding signal (z-score)” value (GlcNAc(b1-3)Gal) of the same binder?
Answer: -0.296

Question: What about the “glycan array binding signal (z-score)” value [6] of the same binder?
Answer: -0.263

Question: And the “glycan array binding signal (z-score)” value (GlcNAc(b1-3)Gal(b1-4)Glc)?
Answer: -0.293

Question: And the “glycan array binding signal (z-score)” value [7]?
Answer: -0.291

Question: What about the “glycan array binding signal (z-score)” value [8] of the same binder?
Answer: -0.284

Question: And the “glycan array binding signal (z-score)” value (GlcNAc(b1-3)GalNAc)?
Answer: -0.299

Question: And the “glycan array binding signal (z-score)” value (GlcNAc(b1-3)Man)?
Answer: -0.302

Question: And the “glycan array binding signal (z-score)” value [9]?
Answer: -0.292

Question: What about the “glycan array binding signal (z-score)” value [10] of the same binder?
Answer: -0.295

Question: What about the “glycan array binding signal (z-score)” value [11] of the same binder?
Answer: -0.277

Question: What about the “glycan array binding signal (z-score)” value [12] of the same binder?
Answer: -0.297

Question: What about the “glycan array binding signal (z-score)” value (GlcNAc(b1-4)GlcNAc) of the same binder?
Answer: -0.296

Question: And the “glycan array binding signal (z-score)” value [13]?
Answer: -0.246

Question: And the “glycan array binding signal (z-score)” value [14]?
Answer: -0.255

Question: And the “glycan array binding signal (z-score)” value [15]?
Answer: -0.245

Question: And the “glycan array binding signal (z-score)” value [16]?
Answer: -0.284

Question: And the “glycan array binding signal (z-score)” value [17]?
Answer: -0.285

Question: And the “glycan array binding signal (z-score)” value (GlcNAc(b1-6)GalNAc)?
Answer: -0.3

Question: And the “glycan array binding signal (z-score)” value (GlcNAc3Prop(b1-4)GlcNAc)?
Answer: -0.272

Question: And the “glycan array binding signal (z-score)” value [18]?
Answer: -0.286

Question: What about the “glycan array binding signal (z-score)” value (Kdn(a2-3)Gal(b1-3)GalNAc) of the same binder?
Answer: -0.168

Question: And the “glycan array binding signal (z-score)” value (Kdn(a2-3)Gal(b1-3)GlcNAc)?
Answer: -0.257

Question: What about the “glycan array binding signal (z-score)” value (Kdn(a2-3)Gal(b1-4)Glc) of the same binder?
Answer: -0.285

Question: What about the “glycan array binding signal (z-score)” value (Kdn(a2-3)Gal(b1-4)GlcNAc) of the same binder?
Answer: -0.286

Question: What about the “glycan array binding signal (z-score)” value [19] of the same binder?
Answer: -0.246

Question: What about the “glycan array binding signal (z-score)” value (Kdn(a2-6)Gal(b1-4)GlcNAc) of the same binder?
Answer: -0.283

Question: And the “glycan array binding signal (z-score)” value [20]?
Answer: -0.159

Question: And the “glycan array binding signal (z-score)” value [21]?
Answer: -0.258

Question: And the “glycan array binding signal (z-score)” value (Man(a1-2)Man(a1-3)Man)?
Answer: -0.287

Question: What about the “glycan array binding signal (z-score)” value [22] of the same binder?
Answer: -0.278

Question: What about the “glycan array binding signal (z-score)” value [23] of the same binder?
Answer: -0.281

Question: What about the “glycan array binding signal (z-score)” value [24] of the same binder?
Answer: -0.292

Question: What about the “glycan array binding signal (z-score)” value [25] of the same binder?
Answer: -0.288

Question: And the “glycan array binding signal (z-score)” value [26]?
Answer: -0.275

Question: What about the “glycan array binding signal (z-score)” value [27] of the same binder?
Answer: -0.297

Question: What about the “glycan array binding signal (z-score)” value (Man(a1-3)[Man(a1-6)]Man) of the same binder?
Answer: -0.265

Question: What about the “glycan array binding signal (z-score)” value [28] of the same binder?
Answer: -0.277

Question: And the “glycan array binding signal (z-score)” value [29]?
Answer: -0.245

Question: What about the “glycan array binding signal (z-score)” value [30] of the same binder?
Answer: -0.231
